In assay [1] the target is T1, human GPA33 recombinant protein (C-terminal His tag fusion protein, abcam) (human, UniProt Q99795 22-235, limits assumed).
T1 construct: Bought recombinant protein (abcam); also called hGPA33
T1 sequence (looked up): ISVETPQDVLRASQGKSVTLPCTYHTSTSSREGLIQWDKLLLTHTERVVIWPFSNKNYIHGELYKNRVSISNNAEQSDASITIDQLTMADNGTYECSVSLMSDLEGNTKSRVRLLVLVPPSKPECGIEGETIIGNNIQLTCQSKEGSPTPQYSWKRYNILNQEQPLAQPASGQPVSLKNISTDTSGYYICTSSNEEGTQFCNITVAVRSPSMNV
Description: SPR, Biacore T200, 25°C, GPA33-His amine-coupled on CM5, scFv-Fc as analyte, 1:1 binding model. A general note: SPR reads the build-up and loss of mass on a sensor chip optically.

The target of assay [2] is T2, mouse GPA33 recombinant protein (C-terminal His tag fusion protein, abcam) (mouse, UniProt Q9JKA5 22-235, limits assumed).
T2 construct: Bought recombinant protein (abcam); also called mGPA33
T2 sequence (looked up): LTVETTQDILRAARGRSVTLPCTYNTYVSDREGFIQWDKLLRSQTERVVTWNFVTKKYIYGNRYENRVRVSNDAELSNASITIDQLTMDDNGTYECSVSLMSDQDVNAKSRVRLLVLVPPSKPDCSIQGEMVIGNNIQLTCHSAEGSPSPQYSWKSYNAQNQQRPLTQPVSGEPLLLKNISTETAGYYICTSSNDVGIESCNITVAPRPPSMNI
The description is as above.

The target in assay [3] is T3, mouse GPA33 expressed on CHO-K1 cells (mGPA33-expressing cells) (mouse, UniProt Q9JKA5 22-319).
T3 construct: whole, on cells
T3 sequence (looked up): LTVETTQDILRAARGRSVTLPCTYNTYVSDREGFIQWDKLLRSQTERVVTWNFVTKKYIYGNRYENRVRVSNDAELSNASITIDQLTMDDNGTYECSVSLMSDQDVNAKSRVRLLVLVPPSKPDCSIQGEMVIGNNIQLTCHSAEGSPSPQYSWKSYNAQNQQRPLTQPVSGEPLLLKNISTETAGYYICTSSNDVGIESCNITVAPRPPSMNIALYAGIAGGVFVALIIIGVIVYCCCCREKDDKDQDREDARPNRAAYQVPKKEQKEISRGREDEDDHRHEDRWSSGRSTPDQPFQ
Description: FACS, cloned phage on GPA33-expressing CHO-K1 cells.

The target of assay [4] is T4, human GPA33 expressed on CHO-K1 cells (hGPA33-expressing cells co-expressing GFP) (human, UniProt Q99795 22-319).
T4 construct: whole, on cells; CHO-K1 transfected with an hGPA33 expression vector (ORIGENE) co-expressing GFP
T4 sequence (looked up): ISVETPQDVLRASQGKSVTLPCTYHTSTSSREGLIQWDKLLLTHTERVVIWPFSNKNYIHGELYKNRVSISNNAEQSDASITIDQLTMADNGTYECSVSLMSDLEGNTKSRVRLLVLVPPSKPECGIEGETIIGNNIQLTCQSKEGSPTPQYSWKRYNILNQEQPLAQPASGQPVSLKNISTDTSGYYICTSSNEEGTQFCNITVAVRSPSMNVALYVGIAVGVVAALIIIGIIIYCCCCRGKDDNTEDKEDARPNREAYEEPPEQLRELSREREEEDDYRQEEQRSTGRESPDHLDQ
The assay is described as above.

Assay [5] deals with T5, human GPA33 expressed on HEK293STF cells (EGFP-human GPA33 expression vector, ORIGENE RG210225) (human, UniProt Q99795 22-319).
T5 sequence (looked up): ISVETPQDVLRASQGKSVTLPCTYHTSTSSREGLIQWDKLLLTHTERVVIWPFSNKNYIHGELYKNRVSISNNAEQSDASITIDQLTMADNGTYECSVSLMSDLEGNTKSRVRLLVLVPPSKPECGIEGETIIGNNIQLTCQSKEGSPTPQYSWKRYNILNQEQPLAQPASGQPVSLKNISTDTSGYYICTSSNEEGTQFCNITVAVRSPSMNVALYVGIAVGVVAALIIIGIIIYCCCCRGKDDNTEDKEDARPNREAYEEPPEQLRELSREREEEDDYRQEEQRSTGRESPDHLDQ
Description: cell-based or functional assay.

For assay [6], the target named is T5, human GPA33 expressed on HEK293STF …. Description: cell-based or functional assay. The source holds these as a separate data set.

Some results are limits rather than exact numbers.

Seven molecules from patent EP4636087A1 (Kagoshima University, dated 2024) can be followed below.

B1: GPA2RC9-Fc (anti-GPA33 single-chain Fv-Fc, scFv linked to human IgG1-Fc) (Fc fusion)
chain: QVQLVQSGGGLVKPGGSLRLSCAASGFTFSNYNMNWVRQAPGKGLEWVSSISSSGDFMYYADSVKGRFTISRDDAKNSLYLQMNSLRAEDTAVYYCAREGPGTPFDYWGQGTLVTVSSGGGGSGGGGSGSTGS[about 100 residues not written out][about 250 residues not written out]
notes: also called 2RC9 scFv-Fc; 2RC9 single-chain Fv-Fc
For B1, the equilibrium dissociation constant (Kd) in assay [1] worked out at 3.6 nM; in assay [2], 14.3 nM.

B2: GPA33-2RC9 cloned scFv phage (scFv)
scFv: QVQLVQSGGGLVKPGGSLRLSCAASGFTFSNYNMNWVRQAPGKGLEWVSSISSSGDFMYYADSVKGRFTISRDDAKNSLYLQMNSLRAEDTAVYYCAREGPGTPFDYWGQGTLVTVSSGGGGSGGGGSGSTGS[about 100 residues not written out]
notes: also called G9
Take B2: the binding result in assay [3] and in assay [4] was “binds” in each case.

B3: G9-R4CRD-His (other)
chain: QVQLVQSGGGLVKPGGSLRLSCAASGFTFSNYNMNWVRQAPGKGLEWVSSISSSGDFMYYADSVKGRFTISRDDAKNSLYLQMNSLRAEDTAVYYCAREGPGTPFDYWGQGTLVTVSSGGGGSGGGGSGSTGS[about 100 residues not written out]GGSGGSGGNCTGCIICSEENGCSTCQQRLFLFIRREGIRQYGKCLHDCPPGYFGIRGQEVNRCKKCGATCESCFSQDFCIRCKRQFYLYKGKCLPTCPPGTLAHQNTRECQGHHHHHHGA
For the molecule B3, in assay [5], the “EC50(GPA33) (nM), Wnt/β-catenin reporter in 293STF cells expressing GPA33” value (“EC50(GPA33) (nM), Wnt/β-catenin reporter” for short) was 0.011 nM and the “EC50(MOG)/ EC50(GPA33)” value stood at 152.

B4: G9-R1CRD-His (other)
chain: QVQLVQSGGGLVKPGGSLRLSCAASGFTFSNYNMNWVRQAPGKGLEWVSSISSSGDFMYYADSVKGRFTISRDDAKNSLYLQMNSLRAEDTAVYYCAREGPGTPFDYWGQGTLVTVSSGGGGSGGGGSGSTGS[about 100 residues not written out]GGSGGSISAEGSQACAKGCELCSEVNGCLKCSPKLFILLERNDIRQVGVCLPSCPPGYFDARNPDMNKCIKCKIEHCEACFSHNFCTKCKEGLYLHKGRCYPACPEGSSAANGTMECSSPAHHHHHHGA
With B4, in assay [5], the “EC50(GPA33) (nM), Wnt/β-catenin reporter” value was 0.008 nM and the “EC50(MOG)/ EC50(GPA33)” value worked out at 3240. Moreover, the “fold higher Wnt/β-catenin signaling promotion activity than Rspo1FL-Fc, by EC50(GPA33)” value in assay [6] came out at 119 times.

B5: G9-R1CRD-GS3-Fcm (Fc fusion)
chain: QVQLVQSGGGLVKPGGSLRLSCAASGFTFSNYNMNWVRQAPGKGLEWVSSISSSGDFMYYADSVKGRFTISRDDAKNSLYLQMNSLRAEDTAVYYCAREGPGTPFDYWGQGTLVTVSSGGGGSGGGGSGSTGS[about 100 residues not written out]GGSGGSISAEGSQACAKGCELCSEVNGCLKCSPKLFILLERNDIRQVGVCLPSCPPGYFDARNPDMNKCIKCKIEHCEACFSHNFCTKCKEGLYLHKGRCYPACPEGSSAANGTMECSSGGGGSGGGGSGGGGSEPKSADKTHTCPPCPAPEAEGAPSVFLFPPKPKDTLMISRTPEVTCVVVDVSHEDPEVKFNWYVDGVEVHNAKTKPREEQYNSTYRVVSVLTVLHQDWLNGKEYKCAVSNKALPASIEKTISKAKGQPREPQVYTLPPSREEMTKNQVSLTCLVKGFYPSDIAVEWESNGQPENNYKTTPPVLDSDGSFFLYSKLTVDKSRWQQGNVFSCSVMHEALHNHYTQKSLSLSPGK
With B5, in assay [5], the “EC50(GPA33) (nM), Wnt/β-catenin reporter” value was determined as 0.04 nM and the “EC50(MOG)/ EC50(GPA33)” value was above 750.

B6: R1CRD-G9-His (other)
chain: ISAEGSQACAKGCELCSEVNGCLKCSPKLFILLERNDIRQVGVCLPSCPPGYFDARNPDMNKCIKCKIEHCEACFSHNFCTKCKEGLYLHKGRCYPACPEGSSAANGTMECSSGGGGSGGGGSGGGGSQVQLVQSGGGLVKPGGSLRLSCAASGFTFSNYNMNWVRQAPGKGLEWVSSISSSGDFMYYADSVKGRFTISRDDAKNSLYLQMNSLRAEDTAVYYCAREGPGTPFDYWGQGTLVTVSSGGGGSGGGGSGSTGS[about 100 residues not written out]HHHHHHGA
For the molecule B6, in assay [5], the “EC50(GPA33) (nM), Wnt/β-catenin reporter” value was 0.028 nM and the “EC50(MOG)/ EC50(GPA33)” value stood at 414.

B7: G9-R4CRD-GS3-Fcm (Fc fusion)
chain: QVQLVQSGGGLVKPGGSLRLSCAASGFTFSNYNMNWVRQAPGKGLEWVSSISSSGDFMYYADSVKGRFTISRDDAKNSLYLQMNSLRAEDTAVYYCAREGPGTPFDYWGQGTLVTVSSGGGGSGGGGSGSTGS[about 100 residues not written out]GGSGGSGGNCTGCIICSEENGCSTCQQRLFLFIRREGIRQYGKCLHDCPPGYFGIRGQEVNRCKKCGATCESCFSQDFCIRCKRQFYLYKGKCLPTCPPGTLAHQNTRECQGGGGGSGGGGSGGGGSEPKSADKTHTCPPCPAPEAEGAPSVFLFPPKPKDTLMISRTPEVTCVVVDVSHEDPEVKFNWYVDGVEVHNAKTKPREEQYNSTYRVVSVLTVLHQDWLNGKEYKCAVSNKALPASIEKTISKAKGQPREPQVYTLPPSREEMTKNQVSLTCLVKGFYPSDIAVEWESNGQPENNYKTTPPVLDSDGSFFLYSKLTVDKSRWQQGNVFSCSVMHEALHNHYTQKSLSLSPGK
With B7, in assay [5], the “EC50(GPA33) (nM), Wnt/β-catenin reporter” value turned out to be 0.016 nM and the “EC50(MOG)/ EC50(GPA33)” value is 36.3.

A word on the Kd: it is the constant that tells how readily two partners part at equilibrium.
